{"source": "the supplement of paper PMC8728848", "binders": {"B1": {"name": "EEA (Euonymus europaeus) (protein)", "chain": "MASTIIATGPTYRVYCRAAPNYNMIVGKGVAFLAPIDETNELQYWYKDDTYSYIKDEAGLPAFSLVNKATGLTLKHSNHHPVPVKLVTYNPNVVDESVLWSQADDRGDGYSAIRSLTNPASHLEAAPLNDWSYNGAIIMGGVWIDAYNQQWKIEPHTG"}}, "experiment_in_all_cases": "glycan array binding signal (z-score within array); higher = stronger binding", "settings_in_all_cases": "glycan notation: IUPAC condensed, linker removed", "key": {"[1]": {"target": "Neu5Gc(a2-3)Gal(b1-3)GlcNAc", "in_short": "(§1)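 Columns mapping to the same glycan were averaged after glycan names were converted to IUPAC-condensed notation. The data come from 3228 arrays in the Consortium for Functional Glycomics database, limited to those with an available protein sequence. Binding is reported as a within-array Z-score averaged across arrays of one protein sequence and across linkers.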"}, "[2]": {"target": "Neu5Gc(a2-3)Gal(b1-3)[Fuc(a1-4)]GlcNAc", "in_short": "as §1"}, "[3]": {"target": "Neu5Gc(a2-3)Gal(b1-4)Glc", "in_short": "as §1"}, "[4]": {"target": "Neu5Gc(a2-3)Gal(b1-4)GlcNAc", "in_short": "as §1"}, "[5]": {"target": "Neu5Gc(a2-3)Gal(b1-4)GlcNAc(b1-3)Gal(b1-4)GlcNAc(b1-2)Man(a1-3)[Neu5Gc(a2-3)Gal(b1-4)GlcNAc(b1-3)Gal(b1-4)GlcNAc(b1-2)Man(a1-6)]Man(b1-4)GlcNAc(b1-4)GlcNAc", "in_short": "as §1"}, "[6]": {"target": "Neu5Gc(a2-3)Gal(b1-4)[Fuc(a1-3)]GlcNAc", "in_short": "as §1"}, "[7]": {"target": "Neu5Gc(a2-3)Gal(b1-4)[Fuc(a1-4)]GlcNAc", "in_short": "as §1"}, "[8]": {"target": "Neu5Gc(a2-6)Gal(b1-4)GlcNAc", "in_short": "as §1"}, "[9]": {"target": "Neu5Gc(a2-6)GalNAc", "in_short": "as §1"}, "[10]": {"target": "Neu5Gc(a2-8)Neu5Ac(a2-3)Gal(b1-4)GlcNAc", "in_short": "as §1"}, "[11]": {"target": "Neu5Gc(a2-8)Neu5Gc(a2-3)Gal(b1-4)GlcNAc", "in_short": "as §1"}, "[12]": {"target": "Neu5Gc(a2-8)Neu5Gc(a2-3)Gal(b1-4)GlcNAc(b1-3)Gal(b1-4)GlcNAc", "in_short": "as §1"}, "[13]": {"target": "Neu5Gc(a2-8)Neu5Gc(a2-6)Gal(b1-4)GlcNAc", "in_short": "as §1"}, "[14]": {"target": "Neu5Gc(b2-6)Gal(b1-4)GlcNAc", "in_short": "as §1"}}, "note": "Some of the results follow."}
{"binder": "B1", "values": [{"measurement": "glycan array binding signal (z-score)", "setting": "[1]", "value": -0.254}, {"measurement": "glycan array binding signal (z-score)", "setting": "[2]", "value": -0.224}, {"measurement": "glycan array binding signal (z-score)", "setting": "[3]", "value": -0.084}, {"measurement": "glycan array binding signal (z-score)", "setting": "[4]", "value": -0.196}, {"measurement": "glycan array binding signal (z-score)", "setting": "[5]", "value": -0.183}, {"measurement": "glycan array binding signal (z-score)", "setting": "[6]", "value": -0.232}, {"measurement": "glycan array binding signal (z-score)", "setting": "[7]", "value": -0.482}, {"measurement": "glycan array binding signal (z-score)", "setting": "[8]", "value": -0.14}, {"measurement": "glycan array binding signal (z-score)", "setting": "[9]", "value": -0.193}, {"measurement": "glycan array binding signal (z-score)", "setting": "[10]", "value": -0.251}, {"measurement": "glycan array binding signal (z-score)", "setting": "[11]", "value": -0.245}, {"measurement": "glycan array binding signal (z-score)", "setting": "[12]", "value": -0.241}, {"measurement": "glycan array binding signal (z-score)", "setting": "[13]", "value": -0.222}, {"measurement": "glycan array binding signal (z-score)", "setting": "[14]", "value": -0.224}]}
